Assay results from PubChem BioAssay AID504333 (National Center for Advancing Translational Sciences (NCATS), 2011).
Among all 360,000 compounds or so, about 16,000 (4.4%) were called active. Inconclusive results, whose numbers are uncertain, are shown with a selection of clear calls. Calls come from the whole dose curve; as a rule, active = well fitted inhibition curve with a large enough effect; inconclusive = small, poorly fitted or top-dose-only effect; inactive = no such curve, though single readings can be large or run the other way. Potencies of inconclusive entries are doubtful fits and often do not repeat.

Molecular target: Bromodomain adjacent to zinc finger domain protein 2B (Homo sapiens) (UniProt Q9UIF8)
Test: qHTS Assay for Inhibitors of BAZ2B; note: nearly all actives have a fitted effect of over 60% in size
Conditions: AlphaScreen BAZ2B-H3K14Ac peptide displacement; activity change, negative = inhibition: at 114 µM (top of the series) unless noted
Method in brief: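 AlphaScreen luminescence quantifies BAZ2B engagement of H3K14Ac peptide; the protein and biotinylated peptide are both at 50 nM final, buffer PBS pH 7.4 with 0.01% Tween-20, all steps at room temperature.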
% is set by controls: 0 for no effect and ±100 for the full control effect; potency is the fitted concentration of half-maximal effect; tags give direction and shape of the fitted curve.

Chain of UniProt Q9UIF8 (Q9UIF8 whole entry, looked up, the tested form may be a part): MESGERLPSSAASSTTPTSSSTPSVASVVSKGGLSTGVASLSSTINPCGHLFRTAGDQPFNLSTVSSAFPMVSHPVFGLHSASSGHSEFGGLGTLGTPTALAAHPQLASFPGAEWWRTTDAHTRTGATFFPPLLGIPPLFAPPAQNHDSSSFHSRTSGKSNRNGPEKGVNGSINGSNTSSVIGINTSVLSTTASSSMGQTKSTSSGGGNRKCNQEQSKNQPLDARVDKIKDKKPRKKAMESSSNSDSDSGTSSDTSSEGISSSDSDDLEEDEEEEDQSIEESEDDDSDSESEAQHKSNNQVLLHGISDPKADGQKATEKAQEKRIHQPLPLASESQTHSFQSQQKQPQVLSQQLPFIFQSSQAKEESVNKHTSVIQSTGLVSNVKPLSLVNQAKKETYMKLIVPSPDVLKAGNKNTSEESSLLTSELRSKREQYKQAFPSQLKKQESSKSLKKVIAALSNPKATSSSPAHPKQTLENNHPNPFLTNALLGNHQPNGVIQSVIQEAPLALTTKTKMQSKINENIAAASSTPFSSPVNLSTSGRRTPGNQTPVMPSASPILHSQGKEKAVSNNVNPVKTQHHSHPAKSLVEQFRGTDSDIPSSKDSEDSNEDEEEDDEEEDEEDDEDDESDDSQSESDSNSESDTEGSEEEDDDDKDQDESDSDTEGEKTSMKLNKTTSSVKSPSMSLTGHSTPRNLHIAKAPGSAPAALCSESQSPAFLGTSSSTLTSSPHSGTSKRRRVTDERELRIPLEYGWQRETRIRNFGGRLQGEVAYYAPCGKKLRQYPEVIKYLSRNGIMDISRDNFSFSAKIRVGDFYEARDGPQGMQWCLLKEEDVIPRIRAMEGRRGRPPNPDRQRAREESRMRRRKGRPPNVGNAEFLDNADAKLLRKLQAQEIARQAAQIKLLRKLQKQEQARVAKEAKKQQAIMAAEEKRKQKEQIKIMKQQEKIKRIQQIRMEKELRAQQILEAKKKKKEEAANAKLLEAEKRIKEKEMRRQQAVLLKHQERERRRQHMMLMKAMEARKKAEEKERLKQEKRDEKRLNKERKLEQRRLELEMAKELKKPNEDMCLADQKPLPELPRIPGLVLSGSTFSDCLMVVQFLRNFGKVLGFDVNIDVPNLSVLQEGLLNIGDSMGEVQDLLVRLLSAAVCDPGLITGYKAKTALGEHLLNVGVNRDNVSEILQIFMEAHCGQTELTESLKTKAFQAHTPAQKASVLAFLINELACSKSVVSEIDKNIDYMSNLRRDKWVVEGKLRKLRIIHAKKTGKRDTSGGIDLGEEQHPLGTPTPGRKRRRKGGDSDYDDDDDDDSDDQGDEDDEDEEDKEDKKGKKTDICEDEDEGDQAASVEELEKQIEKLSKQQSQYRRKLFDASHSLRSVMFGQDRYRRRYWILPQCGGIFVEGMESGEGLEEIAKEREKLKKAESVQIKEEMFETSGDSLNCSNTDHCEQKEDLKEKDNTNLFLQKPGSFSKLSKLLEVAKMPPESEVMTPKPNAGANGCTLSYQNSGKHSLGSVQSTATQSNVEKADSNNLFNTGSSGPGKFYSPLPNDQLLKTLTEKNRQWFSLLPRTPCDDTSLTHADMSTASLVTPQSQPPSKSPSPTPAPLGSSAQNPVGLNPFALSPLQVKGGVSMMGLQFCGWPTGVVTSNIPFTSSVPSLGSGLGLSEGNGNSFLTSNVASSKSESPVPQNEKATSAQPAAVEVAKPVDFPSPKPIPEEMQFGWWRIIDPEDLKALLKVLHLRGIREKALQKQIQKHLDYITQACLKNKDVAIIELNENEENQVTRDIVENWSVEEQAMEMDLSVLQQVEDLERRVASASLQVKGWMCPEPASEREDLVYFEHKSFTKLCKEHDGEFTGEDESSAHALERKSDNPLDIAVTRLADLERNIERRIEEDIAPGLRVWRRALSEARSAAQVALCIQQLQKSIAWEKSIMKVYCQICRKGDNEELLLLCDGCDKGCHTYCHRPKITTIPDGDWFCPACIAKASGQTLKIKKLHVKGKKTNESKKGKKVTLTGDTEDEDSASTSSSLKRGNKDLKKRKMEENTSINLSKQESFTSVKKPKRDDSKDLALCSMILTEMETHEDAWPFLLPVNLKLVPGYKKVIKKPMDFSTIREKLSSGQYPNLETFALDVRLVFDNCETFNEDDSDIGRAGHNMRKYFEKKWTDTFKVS

Row | SMILES | Potency | activity change, negative = inhibition
1 | COc1ccc2sc(N(Cc3cccnc3)C(=O)c3ccc4c(c3)OCCO4)nc2c1 | inconclusive: 79.4 µM [inhibitor, partial curve] | 
2 | O=C1c2sc3nc4ccccc4n3c2C(=O)N1c1ccccc1Cl | inconclusive: 100 µM [inhibitor, single point] | 
3 | C=CCN1C(=O)C(O)(CC(=O)c2ccc(Cl)cc2)c2ccccc21 (stereo unspecified) | inconclusive: 39.8 µM [inhibitor, full curve] | 
4 | O=S(=O)(c1ccccc1)c1nc(-c2ccco2)oc1NCc1ccccc1 |  | inactive: -37.2%
5 | CCOC(=O)C1C(c2ccc(O)c(OC)c2)NC(=O)NC1(O)C(F)(F)F (stereo unspecified) | inconclusive: 89.1 µM [inhibitor, single point] | 
6 | CCCN(c1ccccc1C(=O)O)S(=O)(=O)c1ccc2c(c1)n(C)c(=O)n2C | inconclusive: 89.1 µM [inhibitor, single point] | 
7 | CCc1ccc(-c2cn3c(n2)sc2cc(C(=O)NC4CCCCC4)ccc23)cc1 | inconclusive: 31.6 µM [inhibitor, single point] | 
8 | Cc1ccc(NC(=O)CN2CCN(C)CC2)cc1Br | active: 50.1 µM | 
9 | Cc1ccc(/C=C/C(=O)OCC(=O)Nc2cccc(S(=O)(=O)N(C)C)c2)o1 | active: 79.4 µM | 
10 | O=C(Nc1nc(-c2cccnc2)cs1)c1ccccc1F |  | inactive: 12.8%
11 | O=C(Nc1ccc(-n2nncc2-c2ccco2)cc1)c1cccc(F)c1 | inconclusive: 44.7 µM [inhibitor, partial curve] | 
12 | Cc1nn(S(=O)(=O)c2ccc(Br)cc2)c(C)c1S(=O)(=O)N1CCCCCC1 |  | inactive: 2.91%
13 | COc1ccc(C2CC(=O)n3nc(C45CC6CC(CC(C6)C4)C5)nc3S2)cc1OC (stereo unspecified) |  | inactive: -10.2%
14 | CCc1cc(=O)oc2cc(OCC(=O)NCCCn3ccnc3)c(Cl)cc12 | inconclusive: 79.4 µM [inhibitor, single point] | 
15 | CCc1ccc(S(=O)(=O)N(C(=O)c2ccncc2)c2ccc3oc(C)c(C(=O)OC)c3c2)cc1 | inconclusive: 56.2 µM [inhibitor, partial curve] | 
16 | COc1ccc(CC(=O)N2CCc3cc(OC)c(OC)cc3C2COc2cc(C)cc(C)c2)cc1OC (stereo unspecified) | inconclusive: 35.5 µM [inhibitor, partial curve] | 
17 | Cc1cc(C)cc(OCC(=O)Nc2nc(-c3ccccn3)cs2)c1 |  | inactive: -6.39%
18 | CSCC[C@H](NC(=O)[C@@H]1Cc2ccccc2CN1)C(=O)Nc1ccc2c(c1)OCO2 | inconclusive: 56.2 µM [inhibitor, partial curve] | 
19 | COc1cccc(Cn2c(Oc3cc(C)cc(C)c3)nc3c2c(=O)n(C)c(=O)n3C)c1 | inconclusive: 20 µM [inhibitor, full curve] | 
20 | Oc1cccc(/C=N/Nc2ccc(Cl)nn2)c1O | active: 8.91 µM | 
21 | Cc1cc(C)nc(SCc2ccc(C(=O)N/N=C/c3ccc(C(=O)O)cc3)cc2)n1 |  | inactive: -22.5%
22 | O=C(CSc1ccc(-c2ccco2)nn1)c1ccccc1 | active: 50.1 µM | 
23 | Cc1ccc(C(C)NC(=S)NC2CCCCC2)cc1C (stereo unspecified) | inconclusive: 79.4 µM [inhibitor, single point] | 
24 | COc1ccc(C(NCC(=O)Nc2c(C)cccc2C)c2ccccc2)cc1 (stereo unspecified) | active: 31.6 µM | 

Row | SMILES | Potency | activity change, negative = inhibition
25 | c1coc(CNC2CCCCC2)c1 | inconclusive: 89.1 µM [inhibitor, single point] | 
26 | CCN(CC)c1nc2ccccc2nc1C(=O)Nc1cc(OC)c(OC)c(OC)c1 | inconclusive: 44.7 µM [inhibitor, partial curve] | 
27 | Cc1nn(C(=O)c2ccc(Cl)cc2)c(C)c1S(=O)(=O)N1CCCCCC1 |  | inactive: 8.9%
28 | Cc1ccc2nc(-c3ccc(NS(=O)(=O)c4ccccc4)cc3)sc2c1 |  | inactive: 1.64%
29 | CCCCOC(=O)C1=C(C)NC(=O)NC1c1cccc([N+](=O)[O-])c1 (stereo unspecified) | inconclusive: 1.41 µM [inhibitor, full curve, poor fit] | 
30 | COc1cc(/C=C2/CCC/C(=C\c3cc(O)c(OC)c(Cl)c3)C2=O)cc(Cl)c1O | inconclusive: 20 µM [inhibitor, full curve] | 
31 | CN1CCCC(OC(=O)c2ccc3c(c2)OCCO3)C1 (stereo unspecified) | inconclusive: 79.4 µM [inhibitor, partial curve] | 
32 | CCOC(=O)c1ccc(NC(=O)CSc2c3c(nc4cc(Cl)ccc24)CCCC3)cc1 |  | inactive: -9.2%
33 | COc1cc(OC)c(NC(=O)CCCn2nc(C)c3c(C)n(-c4ccccc4)nc3c2=O)cc1Cl |  | inactive: -18.6%
34 | CCOCCCNCC(=O)NCC1CCCCC1 | active: 50.1 µM | 
35 | COc1cccc(C(=O)NCCS(=O)(=O)NC2CCCC2)c1 |  | inactive: 13.7%
36 | CCc1ccc(OCC(=O)NNC(=O)c2ccc(NC(=O)C3CC3)cc2)cc1 | inconclusive: 79.4 µM [inhibitor, single point] | 
37 | COc1ccc(NC(=O)CCn2cccc2)cc1 | inconclusive: 89.1 µM [inhibitor, single point] | 
38 | CC1=C(C(N)=O)C(c2ccccc2Br)n2ncnc2N1 (stereo unspecified) |  | inactive: -1.19%
39 | CCN(CC)c1ccc(C2NC(=O)NC(C)=C2C(=O)Nc2ccccc2)cc1 (stereo unspecified) | inconclusive: 89.1 µM [inhibitor, single point] | 
40 | CC(=O)c1sc(Nc2ccccn2)nc1C | active: 50.1 µM | 
41 | O=C(NC1CCN(CCc2c[nH]c3ccccc23)CC1)c1ccccc1 | inconclusive: 50.1 µM [inhibitor, partial curve] | 
42 | COc1ccc(C)cc1NC1=C(Cl)C(=O)N(C2CCCCC2)C1=O | inconclusive: 44.7 µM [inhibitor, partial curve] | 
43 | Cc1ccc(C(=O)NCC(=O)OCC(=O)c2cc(C)n(Cc3ccco3)c2C)cc1 | inconclusive: 50.1 µM [inhibitor, partial curve] | 
44 | Cc1cc(C)c(C)c(OCC(O)CN2CCN(c3ccccn3)CC2)c1 (stereo unspecified) | inconclusive: 50.1 µM [inhibitor, partial curve] | 
45 | COc1ccc(/C=N/NC(=O)c2ccncc2)cc1CSc1nc2ccccc2s1 | inconclusive: 79.4 µM [inhibitor, single point] | 
46 | Cn1c(=O)oc2cc(S(=O)(=O)N3CCCC(C(=O)NCc4ccc(F)cc4)C3)ccc21 (stereo unspecified) |  | inactive: -0.656%
47 | CC(C)c1cc(C(=O)NCc2ccco2)no1 | inconclusive: 89.1 µM [inhibitor, single point] | 
48 | O=C(Nc1ccc(F)c(Cl)c1)N1CC=C(c2c[nH]c3ccccc23)CC1 | inconclusive: 79.4 µM [inhibitor, partial curve] | 

Row | SMILES | Potency | activity change, negative = inhibition
49 | CC(C)C(=O)Nc1ccccc1-c1nc2ccccc2[nH]c1=O |  | inactive: -19.3%
50 | CCC(C)NS(=O)(=O)c1cc2c3c(c1)CCC(=O)N3CCC2 (stereo unspecified) |  | inactive: -0.418%
51 | COc1ccccc1OCC(=O)Nc1nc2c(s1)CCCC2 | inconclusive: 79.4 µM [inhibitor, single point] | 
52 | COc1ccc(-c2nc(CS(=O)CC(=O)NCc3ccc(F)cc3)c(C)o2)cc1 (stereo unspecified) | inconclusive: 79.4 µM [inhibitor, partial curve] | 
53 | CCCOc1ccc(-c2nc(C#N)c(N3CCN(CC)CC3)o2)cc1 | active: 39.8 µM | 
54 | Cn1nc(-c2ccccc2)c2cc([N+](=O)[O-])ccc21 | inconclusive: 31.6 µM [inhibitor, single point] | 
55 | Cc1ccc(C)c(CN2C(=O)c3ccccc3S(=O)(=O)c3ccc(C(=O)NCCCN4CCCC(C)C4)cc32)c1 (stereo unspecified) |  | inactive: -39%
56 | COc1ccc(Br)cc1/C=N/Nc1ccc(Cl)c(C(=O)O)c1 | inconclusive: 70.8 µM [inhibitor, single point] | 
57 | Cc1cc(C(=O)CSc2nncs2)c(C)n1Cc1ccco1 | inconclusive: 56.2 µM [inhibitor, partial curve] | 
58 | C/C(=N\NC(=O)c1c(C)nc2ccccn12)c1ccccc1F | inconclusive: 89.1 µM [inhibitor, single point] | 
59 | COC(=O)c1ccc(C(=O)OC)c(NC(=S)N2CCN(c3ccccc3)CC2)c1 | inconclusive: 35.5 µM [inhibitor, partial curve] | 
60 | Cc1ccc(C)c(N2CCN(S(=O)(=O)c3ccc4c(c3)NC(=O)CS4)CC2)c1 | inconclusive: 79.4 µM [inhibitor, single point] | 
61 | O=C(CSc1nn(-c2ccc(F)cc2)c(=S)s1)NCC1CCCO1 (stereo unspecified) | inconclusive: 89.1 µM [inhibitor, single point] | 
62 | COc1cccc(-c2nc(N3CCC(C)CC3)c3ccccc3n2)c1O | inconclusive: 20 µM [inhibitor, full curve] | 
63 | COC(=O)[C@@]1(Cc2ccc(F)cc2)[C@H]2c3cc(C(=O)N4CCCC4)n(Cc4ccc(C(F)(F)F)nc4)c3C[C@H]2CN1C(=O)c1ccccc1 | inconclusive: 89.1 µM [inhibitor, single point] | 
64 | CSc1ccc(CCNS(=O)(=O)c2ccc3c(c2)C(C)(C)C(=O)N3C)cc1 | inconclusive: 79.4 µM [inhibitor, single point] | 
65 | COc1cc2c(cc1O)C(Cc1ccc(O)cc1)NCC2 (stereo unspecified) |  | inactive: -29.1%
66 | OCC1C2c3ccccc3C(c3ccccc32)C1CO (stereo unspecified) |  | inactive: 0.0944%
67 | COc1ccc(-c2csc(NC(=O)CSc3nc(C)nc4sc(C(=O)O)c(C)c34)n2)cc1 | active: 50.1 µM | 
68 | COc1ccc(N=C2C(=O)Nc3c(C)cccc32)cc1 | inconclusive: 70.8 µM [inhibitor, single point] | 
69 | COc1ccc(OC)c(-c2csc(NC(=O)CN3C(=O)NC4(CCCC4)C3=O)n2)c1 | inconclusive: 89.1 µM [inhibitor, single point] | 
70 | COc1cccc(/C=N/Nc2nc(N3CCCC3)nc(N3CCCC3)n2)c1O | inconclusive: 39.8 µM [inhibitor, partial curve] | 
71 | CC(=O)n1cc([C@@H]2C=C(C(=O)Nc3ccccc3)O[C@H](OCCCCO)C2)c2ccccc21 | inconclusive: 79.4 µM [inhibitor, single point] | 
